Measured values from a compilation of properties of binary mixtures (doi:10.1021/jp3100377).
The densities may have been worked out from excess volumes.

Assay: xn = mol fraction of the nth substance listed
Conditions: 100 kPa

CC(=O)[O-].CC[n+]1ccn(C)c1 + O
Conditions	mass density [kg/m3]
293.12 K, x2 = 0.404	1109.5
293.14 K, x2 = 0.6028	1111.7
293.15 K, x2 = 0.802	1103
293.19 K, x2 = 0.2	1106.8
303.14 K, x2 = 0.404	1103.5
303.19 K, x2 = 0	1097.2
303.2 K, x2 = 0.6028	1105.6
303.22 K, x2 = 0.802	1097.2
312.97 K, x2 = 0.2	1094.6
313.12 K, x2 = 0.802	1091.1
313.17 K, x2 = 0	1091.1
313.26 K, x2 = 0.6028	1099.5
323.19 K, x2 = 0.2	1088.7
323.25 K, x2 = 0.404	1091.3
333 K, x2 = 0.404	1085.5
333.12 K, x2 = 0.2	1082.9
333.15 K, x2 = 0	1078.7
343.11 K, x2 = 0.802	1070.9
343.13 K, x2 = 0.2	1077.1
343.19 K, x2 = 0.404	1079.8
343.2 K, x2 = 0.6028	1081
353.13 K, x2 = 0.6028	1075.4
353.16 K, x2 = 0	1067.2
353.17 K, x2 = 0.2	1071.7
353.23 K, x2 = 0.404	1074
